# The supplement of paper PMC8728848
# Some of the results follow.
# B1: Clec2 (Mus musculus), Q9JL99 (protein)
# chain: MQDEDGYITLNIKPRKQALSSAEPASSWWRVMALVLLISSMGLVVGLVALGIMSVTQQKYLLAEKENLSATLQQLAKKFCQELIRQSEIKTKSTFEHKCSPCATKWRYHGDSCYGFFRRNLTWEESKQYCTEQNATLVKTASQSTLDYIAERITSVRWIGLSRQNSKKDWMWEDSSVLRKNGINLSGNTEENMNCAYLHNGKIHPASCKERHYLICERNAGMTRVDQLL
# Key:
# Assay in all cases: glycan array binding signal (z-score within array); higher = stronger binding
# Details in all cases: glycan notation: IUPAC condensed, linker removed
# [1] = molecular target: Fuc(a1-2)Gal(b1-4)[Fuc(a1-3)]GlcNAc
# In short: (§1)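 Negative Z-scores can be read as non-binding. The Z-score is calculated within each array and then averaged across arrays of one protein sequence at different concentrations or buffers and across linkers. Arrays, 3228 in all, were curated from the Consortium for Functional Glycomics database and kept only where the protein sequence was available.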
# [2] = molecular target: Fuc(a1-2)Gal(b1-4)[Fuc(a1-3)]GlcNAc(b1-2)Man(a1-3)[Fuc(a1-2)Gal(b1-4)[Fuc(a1-3)]GlcNAc(b1-2)Man(a1-6)]Man(b1-4)GlcNAc(b1-4)[Fuc(a1-6)]GlcNAc
# In short: as §1
# [3] = molecular target: Fuc(a1-2)Gal(b1-4)[Fuc(a1-3)]GlcNAc(b1-2)[Fuc(a1-2)Gal(b1-4)[Fuc(a1-3)]GlcNAc(b1-4)]Man(a1-3)[Fuc(a1-2)Gal(b1-4)[Fuc(a1-3)]GlcNAc(b1-2)Man(a1-6)]Man(b1-4)GlcNAc(b1-4)GlcNAc
# In short: as §1
# [4] = molecular target: Fuc(a1-2)Gal(b1-4)[Fuc(a1-3)]GlcNAc(b1-3)Gal(b1-4)[Fuc(a1-3)]GlcNAc
# In short: as §1
# [5] = molecular target: Fuc(a1-2)Gal(b1-4)[Fuc(a1-3)]GlcNAc(b1-3)Gal(b1-4)[Fuc(a1-3)]GlcNAc(b1-3)Gal(b1-4)[Fuc(a1-3)]GlcNAc
# In short: as §1
# [6] = molecular target: Fuc(a1-2)Gal(b1-4)[Fuc(a1-3)]GlcNAc(b1-3)GalNAc
# In short: as §1
# [7] = molecular target: Fuc(a1-2)Gal(b1-4)[Fuc(a1-3)]GlcNAc(b1-3)[Neu5Ac(a2-6)Gal(b1-4)GlcNAc(b1-6)]Gal(b1-4)Glc
# In short: as §1
# [8] = molecular target: Fuc(a1-2)Gal3S(b1-4)GlcNAc
# In short: as §1
# [9] = molecular target: Fuc(a1-2)Gal6S(b1-3)GlcNAc
# In short: as §1
# [10] = molecular target: Fuc(a1-2)Gal6S(b1-3)GlcNAc6S
# In short: as §1
# Fuc(a1-2)Gal6S(b1-4)Glc = molecular target: Fuc(a1-2)Gal6S(b1-4)Glc
# In short: as §1
# [11] = molecular target: Fuc(a1-2)Gal6S(b1-4)Glc6S
# In short: as §1
# Fuc(a1-2)[Gal(a1-3)]Gal = molecular target: Fuc(a1-2)[Gal(a1-3)]Gal
# In short: as §1
# [12] = molecular target: Fuc(a1-2)[Gal(a1-3)]Gal(b1-3)GalNAc
# In short: as §1
# [13] = molecular target: Fuc(a1-2)[Gal(a1-3)]Gal(b1-3)GalNAc(b1-3)Gal(a1-4)Gal(b1-4)Glc
# In short: as §1
# [14] = molecular target: Fuc(a1-2)[Gal(a1-3)]Gal(b1-3)GlcNAc
# In short: as §1
# [15] = molecular target: Fuc(a1-2)[Gal(a1-3)]Gal(b1-3)GlcNAc(b1-2)Man(a1-3)[Fuc(a1-2)[Gal(a1-3)]Gal(b1-3)GlcNAc(b1-2)Man(a1-6)]Man(b1-4)GlcNAc(b1-4)GlcNAc
# In short: as §1
# [16] = molecular target: Fuc(a1-2)[Gal(a1-3)]Gal(b1-3)GlcNAc(b1-2)Man(a1-3)[Fuc(a1-2)[Gal(a1-3)]Gal(b1-3)GlcNAc(b1-2)Man(a1-6)]Man(b1-4)GlcNAc(b1-4)[Fuc(a1-6)]GlcNAc
# In short: as §1
# [17] = molecular target: Fuc(a1-2)[Gal(a1-3)]Gal(b1-3)GlcNAc(b1-3)GalNAc
# In short: as §1
# [18] = molecular target: Fuc(a1-2)[Gal(a1-3)]Gal(b1-3)GlcNAc(b1-6)GalNAc
# In short: as §1
# [19] = molecular target: Fuc(a1-2)[Gal(a1-3)]Gal(b1-4)Glc
# In short: as §1
# [20] = molecular target: Fuc(a1-2)[Gal(a1-3)]Gal(b1-4)GlcNAc
# In short: as §1
# [21] = molecular target: Fuc(a1-2)[Gal(a1-3)]Gal(b1-4)GlcNAc(b1-2)Man
# In short: as §1
# [22] = molecular target: Fuc(a1-2)[Gal(a1-3)]Gal(b1-4)GlcNAc(b1-2)Man(a1-3)[Fuc(a1-2)[Gal(a1-3)]Gal(b1-4)GlcNAc(b1-2)Man(a1-6)]Man(b1-4)GlcNAc(b1-4)GlcNAc
# In short: as §1
# [23] = molecular target: Fuc(a1-2)[Gal(a1-3)]Gal(b1-4)GlcNAc(b1-2)Man(a1-3)[Fuc(a1-2)[Gal(a1-3)]Gal(b1-4)GlcNAc(b1-2)Man(a1-6)]Man(b1-4)GlcNAc(b1-4)[Fuc(a1-6)]GlcNAc
# In short: as §1
# [24] = molecular target: Fuc(a1-2)[Gal(a1-3)]Gal(b1-4)GlcNAc(b1-3)GalNAc
# In short: as §1
# [25] = molecular target: Fuc(a1-2)[Gal(a1-3)]Gal(b1-4)GlcNAc(b1-3)[Fuc(a1-2)[Gal(a1-3)]Gal(b1-4)GlcNAc(b1-6)]GalNAc
# In short: as §1
# [26] = molecular target: Fuc(a1-2)[Gal(a1-3)]Gal(b1-4)GlcNAc(b1-6)GalNAc
# In short: as §1
# [27] = molecular target: Fuc(a1-2)[Gal(a1-3)]Gal(b1-4)[Fuc(a1-3)]Glc
# In short: as §1
# [28] = molecular target: Fuc(a1-2)[Gal(a1-3)]Gal(b1-4)[Fuc(a1-3)]GlcNAc
# In short: as §1
# [29] = molecular target: Fuc(a1-2)[Gal(a1-3)]Gal(b1-4)[Fuc(a1-3)]GlcNAc(b1-3)GalNAc
# In short: as §1
# [30] = molecular target: Fuc(a1-2)[Gal(a1-4)]Gal(b1-4)GlcNAc
# In short: as §1
# [31] = molecular target: Fuc(a1-2)[GalNAc(a1-3)]Gal
# In short: as §1
# [32] = molecular target: Fuc(a1-2)[GalNAc(a1-3)]Gal(b1-3)GalNAc(a1-3)[Fuc(a1-2)]Gal(b1-4)GlcNAc
# In short: as §1
# [33] = molecular target: Fuc(a1-2)[GalNAc(a1-3)]Gal(b1-3)GalNAc(b1-3)Gal(a1-4)Gal(b1-4)Glc
# In short: as §1
# [34] = molecular target: Fuc(a1-2)[GalNAc(a1-3)]Gal(b1-3)GlcNAc
# In short: as §1
# [35] = molecular target: Fuc(a1-2)[GalNAc(a1-3)]Gal(b1-3)GlcNAc(b1-2)Man(a1-3)[Fuc(a1-2)[GalNAc(a1-3)]Gal(b1-3)GlcNAc(b1-2)Man(a1-6)]Man(b1-4)GlcNAc(b1-4)GlcNAc
# In short: as §1
# [36] = molecular target: Fuc(a1-2)[GalNAc(a1-3)]Gal(b1-3)GlcNAc(b1-2)Man(a1-3)[Fuc(a1-2)[GalNAc(a1-3)]Gal(b1-3)GlcNAc(b1-2)Man(a1-6)]Man(b1-4)GlcNAc(b1-4)[Fuc(a1-6)]GlcNAc
# In short: as §1
binder,measurement,setting,value
B1,glycan array binding signal (z-score),[1],0.161
same,glycan array binding signal (z-score),[2],-0.189
same,glycan array binding signal (z-score),[3],0.373
same,glycan array binding signal (z-score),[4],-0.444
same,glycan array binding signal (z-score),[5],-0.387
same,glycan array binding signal (z-score),[6],0.059
same,glycan array binding signal (z-score),[7],-0.551
same,glycan array binding signal (z-score),[8],-0.777
same,glycan array binding signal (z-score),[9],-0.167
same,glycan array binding signal (z-score),[10],2.16
same,glycan array binding signal (z-score),Fuc(a1-2)Gal6S(b1-4)Glc,0.095
same,glycan array binding signal (z-score),[11],1.11
same,glycan array binding signal (z-score),Fuc(a1-2)[Gal(a1-3)]Gal,-0.3
same,glycan array binding signal (z-score),[12],0.353
same,glycan array binding signal (z-score),[13],-0.604
same,glycan array binding signal (z-score),[14],0.367
same,glycan array binding signal (z-score),[15],-0.485
same,glycan array binding signal (z-score),[16],-0.397
same,glycan array binding signal (z-score),[17],0.031
same,glycan array binding signal (z-score),[18],0.298
same,glycan array binding signal (z-score),[19],-0.114
same,glycan array binding signal (z-score),[20],-0.69
same,glycan array binding signal (z-score),[21],-0.013
same,glycan array binding signal (z-score),[22],-0.683
same,glycan array binding signal (z-score),[23],-0.006
same,glycan array binding signal (z-score),[24],-0.063
same,glycan array binding signal (z-score),[25],-0.306
same,glycan array binding signal (z-score),[26],0.309
same,glycan array binding signal (z-score),[27],-0.729
same,glycan array binding signal (z-score),[28],-0.319
same,glycan array binding signal (z-score),[29],-0.212
same,glycan array binding signal (z-score),[30],0.332
same,glycan array binding signal (z-score),[31],-0.098
same,glycan array binding signal (z-score),[32],-0.388
same,glycan array binding signal (z-score),[33],0.021
same,glycan array binding signal (z-score),[34],-0.625
same,glycan array binding signal (z-score),[35],-0.66
same,glycan array binding signal (z-score),[36],-0.887
